The source of these data is PMC4336329 (PLoS ONE, 2015).

The campaign covered roughly 310,000 compounds. About 14,000 (4.5%) showed an effect of 50% or more. Effects have a minus sign here. This is one part of the list.
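Note: peak tail current of the secondary pulse compared with the same well before compound.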

Sequence of human ether-à-go-go-related gene (hERG) potassium channel (Q12809 whole entry, looked up): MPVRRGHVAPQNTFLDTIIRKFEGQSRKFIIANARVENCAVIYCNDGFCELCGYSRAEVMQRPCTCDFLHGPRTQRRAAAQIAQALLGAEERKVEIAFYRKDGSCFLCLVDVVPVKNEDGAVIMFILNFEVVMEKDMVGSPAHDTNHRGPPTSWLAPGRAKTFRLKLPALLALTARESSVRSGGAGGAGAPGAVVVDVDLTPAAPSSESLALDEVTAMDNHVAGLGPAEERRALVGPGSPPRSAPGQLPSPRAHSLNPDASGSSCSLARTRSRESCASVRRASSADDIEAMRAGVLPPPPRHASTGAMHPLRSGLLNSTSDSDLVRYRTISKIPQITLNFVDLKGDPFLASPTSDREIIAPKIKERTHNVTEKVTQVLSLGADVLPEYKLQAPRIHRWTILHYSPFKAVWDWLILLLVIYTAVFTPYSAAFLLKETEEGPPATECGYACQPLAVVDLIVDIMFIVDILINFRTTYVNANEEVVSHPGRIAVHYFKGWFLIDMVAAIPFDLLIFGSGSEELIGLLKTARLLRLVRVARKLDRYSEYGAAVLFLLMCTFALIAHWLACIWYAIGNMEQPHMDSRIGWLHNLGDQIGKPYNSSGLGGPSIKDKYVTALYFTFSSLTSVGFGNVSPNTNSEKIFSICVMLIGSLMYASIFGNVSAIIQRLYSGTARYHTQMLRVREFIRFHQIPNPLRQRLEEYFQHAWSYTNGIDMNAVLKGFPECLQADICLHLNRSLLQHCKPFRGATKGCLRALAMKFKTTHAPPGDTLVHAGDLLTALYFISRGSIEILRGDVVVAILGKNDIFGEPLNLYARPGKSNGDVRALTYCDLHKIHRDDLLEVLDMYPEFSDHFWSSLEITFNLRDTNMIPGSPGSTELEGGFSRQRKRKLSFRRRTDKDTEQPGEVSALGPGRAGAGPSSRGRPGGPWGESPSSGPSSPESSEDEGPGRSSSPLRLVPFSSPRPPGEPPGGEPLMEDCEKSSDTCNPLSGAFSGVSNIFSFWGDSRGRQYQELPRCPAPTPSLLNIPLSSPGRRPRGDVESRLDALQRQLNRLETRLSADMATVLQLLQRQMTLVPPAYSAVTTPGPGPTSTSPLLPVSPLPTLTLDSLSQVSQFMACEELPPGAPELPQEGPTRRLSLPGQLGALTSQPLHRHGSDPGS

This experiment addresses human ether-à-go-go-related gene (hERG) potassium channel (human, UniProt Q12809). The experiment can be described thus: primary screen, population patch clamp on CHO cells stably expressing hERG.
`CCC(=O)Nc1ccc(C(=O)CSc2nc(N)cc(N)n2)cc1`: the “hERG current change (%, negative = inhibition) at 10uM” value was 5.78%.

Consider `CC12CCC(C(=O)NCc3ccccc3Cl)(C(Br)C1=O)C2(C)C` (stereo not drawn), for which the “hERG current change (%, negative = inhibition) at 10uM” value is given as 14.6%. For the compound `COc1ccc(N2CCN(CCCNC(=O)C(=O)c3c[nH]c4ccccc34)CC2)cc1`, the “hERG current change (%, negative = inhibition) at 10uM” value is recorded as -69.7%. Regarding `CC(C)O.COc1cccc(C2C3=C(CC(C)(C)CC3=O)Nc3n[nH]c(C)c32)c1` (stereo not drawn), the “hERG current change (%, negative = inhibition) at 10uM” value stood at 7.39%.

With `CC1=CC(C)(C)N(C(=O)CSc2nccn2C)c2cc(C)ccc21`, the “hERG current change (%, negative = inhibition) at 10uM” value is given as -0.933%. Take `COc1cc(NS(=O)(=O)c2ccc(C)c(C)c2)c(OC)cc1Cl`: the “hERG current change (%, negative = inhibition) at 10uM” value was -12.3%. For `O=C(CN(Cc1ccc(F)cc1)C(=O)CNS(=O)(=O)c1ccc(F)cc1)NCc1ccco1` the value was 12.6%; for `COC(=O)C1CCN(C(=O)c2ccccc2Oc2ccccc2)CC1`, 1.87%; for `O=C(N/N=C/c1ccc(C(=O)O)cc1)C1=NNC(c2ccccc2)(c2ccccc2)C1`, 7.44%. For `Cc1cccc(/C=N\N=C\c2cccc(C)c2)c1` the value was 16.1%. For `O=[N+]([O-])/C(C(Cl)=C(Cl)Cl)=C1\Nc2ccccc2O1` the value was 13%; for `CN(CCc1cn[nH]c1)C(=O)CC1C(=O)NCCN1Cc1ccccc1C(F)(F)F` (stereo not drawn), 17.8%; for `O=C(N/N=C/c1cccs1)c1ccccn1`, 14%. In the case of `Cc1cccc(Nc2nc(-c3ccc(F)c(C)c3)cs2)n1`, the “hERG current change (%, negative = inhibition) at 10uM” value is 15.8%. As for `COc1ccc(S(=O)(=O)Cc2ccc(C(=O)N3CCCC3)o2)cc1`, the “hERG current change (%, negative = inhibition) at 10uM” value was 1.74%. For `Cc1ccc2c(c1)S/C(=C/c1ccc[n+](CCO)c1)N2C.[I-]` the value was 16%. For `COc1ccc(N2CCN(C(=O)Cn3nnc(-c4ccc(N(C)C)cc4)n3)CC2)cc1` the value was 2.72%. With `Cc1ccc(Nc2cc(C)nc3nc(C)nn23)cc1` the figure was -24.5%; with `COCCn1c(SCC(=O)N2CCCC(C)C2)nnc1-c1ccco1` (stereo not drawn), 13.2%; with `C/C(=N\NC(=O)COc1cccc(C)c1)c1ccc2ccccc2c1O`, 0.465%. For `Cc1cc(OC2CCCCC2)nc(-c2ccccc2O)n1`, the “hERG current change (%, negative = inhibition) at 10uM” value stood at 19.6%.

On to `COc1ccc(-c2nnn(CC(=O)N(C3CCCC3)C(C)C(=O)NC3CCCC3)n2)cc1OC` (stereo not drawn), for which the “hERG current change (%, negative = inhibition) at 10uM” value is recorded as -29.2%.

In the case of `Cc1ccc(-n2c(C)nc3ccsc3c2=O)cc1`, the “hERG current change (%, negative = inhibition) at 10uM” value is listed as 1.42%. Turning to `COC(=O)[C@H]1C[C@@H]1[C@H](NC(=O)c1cnccn1)c1ccccc1`, the “hERG current change (%, negative = inhibition) at 10uM” value was found to be 3.44%. `Cc1ncn(C23CC4CC(CC(O)(C4)C2)C3)n1`: the “hERG current change (%, negative = inhibition) at 10uM” value is -2.28%. `CC(C)N(CCNC(=O)c1ccc(OCC2CCCO2)cc1)C(C)C` (stereo not drawn): the “hERG current change (%, negative = inhibition) at 10uM” value turned out to be 4.98%. Consider `CCCCN(CCCC)Cc1ccc(N)cc1`, for which the “hERG current change (%, negative = inhibition) at 10uM” value was -7.82%. With `C=CCc1cccc(/C=N/NC(=O)C(C)Nc2cccc(C)c2)c1O` (stereo not drawn) the figure was 6.12%. `CCCCN(C)C(=S)Nc1ccc2nc(N3CCN(CC)CC3)cc(C)c2c1`: the “hERG current change (%, negative = inhibition) at 10uM” value is given as -78.9%. With `Cc1nnc(N/N=C\c2ccc(-c3cccc(C(=O)O)c3)o2)n1N.Cl`, the “hERG current change (%, negative = inhibition) at 10uM” value is reported as 29.3%. As to `O=C(Nc1ccc2ccccc2c1)c1ccc(Cl)cc1Cl`, the “hERG current change (%, negative = inhibition) at 10uM” value is recorded as 31%.

For the compound `Cc1cc(C)c(C)c(S(=O)(=O)Nc2ccccc2C(=O)NCCCN2CCOCC2)c1C`, the “hERG current change (%, negative = inhibition) at 10uM” value is on record as -88.5%.

As to `O=C(Cc1ccccc1)Nc1ccc(NC(=O)c2cccnc2)cc1`, the “hERG current change (%, negative = inhibition) at 10uM” value stood at 20.3%. With `Cc1ccc(NC(=O)Cn2cnc3c(=O)n(C)c(=O)n(C)c32)c(C)c1` the figure was -7.57%. `O=C(NCCNc1ccc(Cl)cc1[N+](=O)[O-])c1cccnc1`: the “hERG current change (%, negative = inhibition) at 10uM” value is on record as -29.4%. In the case of `O=C1c2ccccc2C(=O)N1c1ccc(Cl)cn1`, the “hERG current change (%, negative = inhibition) at 10uM” value was found to be 1.29%. On to `NC(=O)c1cc[n+](CC2=C(C(=O)[O-])N3C(=O)[C@@H](NC(=O)C(c4ccccc4)S(=O)(=O)[O-])[C@H]3SC2)cc1.[Na+]` (stereo partly drawn), for which the “hERG current change (%, negative = inhibition) at 10uM” value is 20.3%. With `Cc1ccc(S(=O)(=O)N2CCN(C(C)CC(=O)O)CC2)cc1` (stereo not drawn), the “hERG current change (%, negative = inhibition) at 10uM” value is 16.4%.

With `Cn1cc(Cl)c(C(=O)OCC(=O)Nc2ccccc2)n1`, the “hERG current change (%, negative = inhibition) at 10uM” value was 7.38%. Turning to `O=C(CN1CCN(Cc2cccc(F)c2)CC1)NCc1ccccc1`, the “hERG current change (%, negative = inhibition) at 10uM” value is reported as -10.4%.

With `COc1ccc(Oc2nnc(-c3ccccc3)cc2C#N)cc1`, the “hERG current change (%, negative = inhibition) at 10uM” value amounted to 7.69%. Take `CC(C)CC(c1nnnn1Cc1ccco1)N1CCN(C2CCCC2)CC1.Cl` (stereo not drawn): the “hERG current change (%, negative = inhibition) at 10uM” value was -38.1%. With `COc1cccc2c(O)cc(=O)n(C)c12` the figure was 6.9%; with `O=C(Nc1ccc(OC(F)(F)F)cc1)c1ccc2c(c1)no[n+]2[O-]`, -1.27%; with `Cc1c(OC(C)C(=O)NCc2ccccn2)ccc2c3c(c(=O)oc12)CCCC3` (stereo not drawn), -23%.

Take `CC(C)CCn1c(N2CCOCC2)nc2c1c(=O)n(CC(N)=O)c(=O)n2C`: the “hERG current change (%, negative = inhibition) at 10uM” value was found to be 19.5%. For the compound `Nc1c(C(=O)c2ccccc2)sc2nsc(SCCN3CCOCC3)c12`, the “hERG current change (%, negative = inhibition) at 10uM” value was 18.1%. In the case of `c1ccc(N/N=C2\CCCc3ccccc32)nc1`, the “hERG current change (%, negative = inhibition) at 10uM” value amounted to 1.09%. With `CC(C)Cn1c(N)c(C(=O)NCc2cccs2)c2nc3ccccc3nc21`, the “hERG current change (%, negative = inhibition) at 10uM” value worked out at 1.87%. Take `CCc1cc(=O)oc2cc(OCC(N)=O)c(Cl)cc12`: the “hERG current change (%, negative = inhibition) at 10uM” value was -8.39%. In the case of `N#Cc1ccc(/C=N/NC(=O)c2cc(-c3cccs3)nc3ccccc23)cc1`, the “hERG current change (%, negative = inhibition) at 10uM” value is -5.7%. Regarding `Cc1ccccc1-n1c(C)cc(/C=C2\NC(=O)NC2=O)c1C`, the “hERG current change (%, negative = inhibition) at 10uM” value is -8.57%.

As for `Cn1c(O)c(C(=N)COc2cccc(Cl)c2)c(=O)n(C)c1=O`, the “hERG current change (%, negative = inhibition) at 10uM” value is recorded as -3.94%. For the compound `Cc1ccc(CN2C(=O)CCC2C(=O)NCCCN2CCCC(C)C2)cc1` (stereo not drawn), the “hERG current change (%, negative = inhibition) at 10uM” value is on record as 1.99%. For `CCC(C(=O)Nc1ncn[nH]1)(C(F)(F)F)C(F)(F)F`, the “hERG current change (%, negative = inhibition) at 10uM” value is listed as -10.3%. With `CCN(Cc1nc2ccccc2c(=O)[nH]1)C(=O)c1cc(C2CC2)nn1-c1ccccc1` the figure was -34%.

As for `O=C(Cc1ccc(S(=O)(=O)N2CCOCC2)s1)Oc1ccc(F)cc1`, the “hERG current change (%, negative = inhibition) at 10uM” value was determined as 7.19%.
